# Data as given in paper PMC6919601, “Identification of Plasmodium dipeptidyl aminopeptidase allosteric inhibitors by high throughput screening” (PLoS ONE, 2019).
# Values joined by “and” are separate entries in the source; they are usually repeats but may differ in a detail not shown here. Identical values can stand only once. The campaign covered roughly 110,000 compounds. About 230 (0.21%) showed an effect of 50% or more. This is one part of the list.
# Target: DPAP1 (Plasmodium falciparum, UniProt Q8IIJ9)
# Assay: primary screen, percent inhibition; read by cleavage of a fluorogenic dipeptide substrate; higher = more effect of the substance
# Set-up: species or system P. falciparum D10 trophozoite lysates; single well
# Description: HTS was performed in black 384-well plates. The first and last two columns of each plate contained our negative (DMSO) and positive (10 μM JCP410) controls, and the 20 central columns the test compounds at 10 μM. Compounds were first diluted 50-fold into assay buffer (50 mM sodium acetate, 5 mM MgCl2, 10 mM β-mercaptoethanol, and 0.1% CHAPS, pH 5.5) from a 10 mM DMSO stock plates. One microliter of this 200 μM intermediate stock plate was dispensed into the assay plate. […] After 30 min, the reaction was quenched with 20 μL of 0.5 M acetic acid, and the fluorescent intensity measured at 523 nm (λex = 492 nm) using an Analyst HT multimode plate reader (Molecular Devices).
# 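Also: 30 min substrate incubation versus DMSO and 10 µM JCP410 controls.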
# Sequence of DPAP1 (Q8IIJ9 whole entry, looked up): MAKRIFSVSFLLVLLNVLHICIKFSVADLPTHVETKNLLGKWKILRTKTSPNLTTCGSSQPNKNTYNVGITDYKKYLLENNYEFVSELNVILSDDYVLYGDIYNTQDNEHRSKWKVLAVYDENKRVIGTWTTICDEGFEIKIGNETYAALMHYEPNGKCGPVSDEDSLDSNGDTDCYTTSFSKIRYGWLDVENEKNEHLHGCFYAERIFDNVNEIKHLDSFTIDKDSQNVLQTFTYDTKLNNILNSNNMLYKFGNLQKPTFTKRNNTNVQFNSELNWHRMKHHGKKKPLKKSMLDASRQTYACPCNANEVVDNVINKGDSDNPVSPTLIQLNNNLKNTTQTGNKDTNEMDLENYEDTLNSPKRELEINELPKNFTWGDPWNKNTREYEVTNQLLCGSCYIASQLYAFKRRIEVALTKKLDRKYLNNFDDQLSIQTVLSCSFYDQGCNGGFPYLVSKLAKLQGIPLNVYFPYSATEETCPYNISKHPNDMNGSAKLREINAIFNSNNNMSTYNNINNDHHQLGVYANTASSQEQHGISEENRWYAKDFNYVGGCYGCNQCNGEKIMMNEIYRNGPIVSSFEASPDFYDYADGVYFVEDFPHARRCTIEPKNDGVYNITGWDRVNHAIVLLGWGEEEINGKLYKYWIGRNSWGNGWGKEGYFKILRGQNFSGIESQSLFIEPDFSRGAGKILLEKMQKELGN
row,SMILES,% Inhibition @ 10 uM
1,O=[N+]([O-])c1ccc(Cl)cc1CN1CCN(c2cccc(C(F)(F)F)c2)CC1,-0.197%
2,Cc1cccc(OP(=O)(Nc2cccnc2)Oc2cccc(C)c2)c1,-1.03%
3,CCc1c(O)n2c(nc1=O)SCCC2,3.61%
4,O=[N+]([O-])c1ccccc1S(=O)(=O)n1ccnc1,4.54%
5,COCCNC(=O)c1cnn2c(C)c(Cc3ccccc3Cl)c(C)nc12,-2.14%
6,CCc1nnc(C(=O)[C@H](CC)NC(=O)[C@H](C[C@H](C)c2ccccc2)NC(=O)c2ccc(-c3ccccc3Cl)nc2)o1,-1.82%
7,CC(C)NS(=O)(=O)c1ccc(CCC(=O)Nc2ccc3c(c2)OCCO3)cc1,-3.92%
8,CCOC(=O)N1CCN(c2cc(N3CCOCC3)c(F)cc2[N+](=O)[O-])CC1,-2.48%
9,Oc1ccc(N2CCCCC2)nn1,2.39%
10,N#CC1C(=O)NC(=O)C([n+]2ccccc2)C1c1ccccc1 (centres unmarked),0.746%
11,CC1(C)Cc2c(c(N3CCOCC3)nc3sc4c(SCCc5ccccc5)ncnc4c23)CO1,-7.8%
12,CCCNC(=O)c1ccc2[nH]c(C)c(C)c2c1,-4.71%
13,Cc1cc(/C=C2\SC(=O)NC2=O)c(C)n1-c1ccc(C(=O)O)cc1,8.37%
14,C=CCOc1ccc(C2N3CC4(C)CN2CC(c2ccccc2)(C3)C4=O)cc1 (centres unmarked),-5.15%
15,Nc1nnc(SCC(=O)Nc2nncs2)s1,-7.23%
16,COc1ccc(/N=C2/S/C(=C\c3ccc(C)s3)C(=O)N2C)cc1,5.17%
17,Oc1nc(S)nc(O)c1C(c1ccccc1)c1ccccc1,0.266% and -3.42%
18,COC1CCCCC1Nc1cccc(SC)c1 (centres unmarked),5%
19,O=C1CC(c2cccc(O)c2)C2=C(CC(c3cccs3)CC2=O)N1 (centres unmarked),-5.47%
20,COc1ccc(Cl)cc1-n1nnc(-c2nc(-c3ccc(C)cc3)no2)c1N,1.4%
21,COc1ccc(C2C3=C(O)CC(C)(C)CC3=NC(C)=C2C(=O)Nc2cccc(C)n2)cc1 (centres unmarked),-6.35%
22,COc1ccc(S(=O)(=O)N2CCCC2C(=O)Nc2nccs2)cc1 (centres unmarked),-0.318%
23,Cc1nn(-c2ccccc2)c2sc(C(=O)NCC(=O)c3ccccc3)cc12,1.96%
24,O=C(CSc1cn(CC(=O)N2CCOCC2)c2ccccc12)NCc1ccccc1Cl,-1.39%
25,Cc1cc(OCC(=O)Nc2sc(C)c(C)c2C(N)=O)cc(C)c1Cl,2.56%

row,SMILES,% Inhibition @ 10 uM
1,CCOC(=O)N1CCN(C(=O)c2cnn(-c3ccc(F)cc3)c2-n2cccc2)CC1,-6.3%
2,CC(=O)c1ccc(N2C(=O)C3CC=CCC3C2=O)cc1 (centres unmarked),3.05%
3,O=C(Cn1c(=O)c2cccn2c2cccnc21)N1CCCCCC1,0.436%
4,CCSc1nc(N)c(C#N)c(CC)c1C#N,23.3%
5,CCOc1ccccc1C(=O)Nc1cccc(CC)c1,-0.545%
6,Cc1oc(-c2ccc(Cl)cc2)nc1CSCC(=O)NC(C)C,-1.05%
7,COc1ccc(-c2cc(C(F)F)n3ncc(C(=O)Nc4cccc(NC(C)=O)c4)c3n2)cc1,-1.99%
8,O=[N+]([O-])c1ccc(C2Oc3ccccc3C3CC(c4ccccc4)=NN32)cc1 (centres unmarked),1.24%
9,CC1(C)Cc2c(C#N)c(NC3CCCCC3)nc(-c3ccco3)c2CO1,0.415%
10,OC1CCN(Cc2ccccc2Cl)CC1,-3.56%
11,Cc1cccc(NC(=O)c2ccccc2NC(=O)CCC(=O)O)c1,1.94%
12,CC(=O)Nc1ccc(NS(=O)(=O)c2ccc(NC(C)=O)cc2)cc1,3.81%
13,Cc1cccc(CSc2nc3ccncc3n2Cc2cc(=O)n3ccccc3n2)c1,-0.637%
14,Cc1ccc2c(C)nc(Nc3nc(C)c(Cc4ccccc4)c(O)n3)nc2c1,2.27%
15,CCn1cc(NC(=O)NCc2cccs2)c(=O)c2ccc(C)nc21,0.635%
16,C1=C(CCNC2CCN(CCc3ccccc3)CC2)CCCC1,-7.02%
17,Cc1ccnc(NS(=O)(=O)c2cc(-c3onc(C)c3C)ccc2C)c1,-0.795%
18,COC(=O)c1c(C(F)(F)F)nc(C(F)F)c(C(=O)O)c1CC(C)C,-7.11%
19,O=c1[nH]c(=O)c2sc3nc(C(F)(F)F)cc(Cc4ccccc4)c3c2[nH]1,0.9%
20,Cc1ccccc1Cc1c(C)nc2c(C(=O)NCC3CCCO3)cnn2c1C (centres unmarked),1.16%
21,Cc1c(Cc2ccccc2)sc(NC(=O)c2ccco2)c1C(N)=O,-1.02%
22,COc1cccc(-c2cn3c(n2)sc2cc(C(=O)NCCCN4CCCC4=O)ccc23)c1,3.54%
23,CN(Cc1ccccc1)S(=O)(=O)c1ccc2nc(O)ccc2c1,-4.18%
24,O=C1c2ccccc2C(=O)c2c1cccc2N1CCN(Cc2ccccc2)CC1,-3.27%
25,Cc1cc(C)nc(Sc2ncnc3sc4c(c23)CCC4)n1,-1.65%
